Measured values from PubChem BioAssay AID485294 (National Center for Advancing Translational Sciences (NCATS), 2010).
Screen size: about 370,000 compounds; about 150 (0.041%) were called active. This list was built around the results that the source calls inconclusive (neither active nor inactive); the mix of calls is not that of the screen. Calls come from the whole dose curve; as a rule, active = well fitted inhibition curve with a large enough effect; inconclusive = small, poorly fitted or top-dose-only effect; inactive = flat fitted curve, though single readings scatter. No potency is given beside an inconclusive call; the fits are too rough.

biological target: Beta-lactamase (Escherichia coli (strain K12)) (UniProt P00811); assay: qHTS Inhibitors of AmpC Beta-Lactamase (assay with detergent); conditions: AmpC hydrolysis of nitrocefin, absorbance 480 nm, 0.01% Triton; activity change, negative = inhibition: at 114 µM (top of the series); note: nearly all actives have a fitted effect of over 25% in size;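 for activity change, negative = inhibition: 0% = no-compound wells and -100% = no-enzyme wells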
In short: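 20 mM phosphate pH 7.0 + 0.01% (detergent screen) or 0.0001% Triton X-100; 5.3 nM AmpC reagent; cpd preinc 15 min RT; nitrocefin (800 uM stock) to start; A480 q20 s × 4 min; Activity was normalised to no-enzyme and no-compound control wells.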
Potency is the fitted concentration of half-maximal effect; tags give direction and shape of the fitted curve.

Sequence of UniProt P00811 (P00811 whole entry, looked up): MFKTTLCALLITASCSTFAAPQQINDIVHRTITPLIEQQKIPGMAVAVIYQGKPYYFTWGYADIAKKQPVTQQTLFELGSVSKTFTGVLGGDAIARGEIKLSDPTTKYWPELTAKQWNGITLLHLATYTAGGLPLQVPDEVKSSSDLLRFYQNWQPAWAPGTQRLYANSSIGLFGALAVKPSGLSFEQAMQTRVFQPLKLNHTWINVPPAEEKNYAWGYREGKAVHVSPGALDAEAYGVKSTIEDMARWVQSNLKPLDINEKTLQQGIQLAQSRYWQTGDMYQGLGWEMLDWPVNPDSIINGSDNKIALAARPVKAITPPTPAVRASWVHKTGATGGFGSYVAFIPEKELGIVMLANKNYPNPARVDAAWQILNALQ

SMILES	Potency	activity change, negative = inhibition
Cc1c(C(=O)NCc2ccc3c(c2)OCO3)sc2nc(-c3ccc(F)cc3)cn12	inconclusive [inhibitor, partial curve, poor fit]	
CCOC(=O)/C(C#N)=C/Nc1ccccc1OC	inconclusive [inhibitor, full curve, poor fit]	
O=C(CNC(=O)c1ccccc1)Nc1cccc(C(F)(F)F)c1	inconclusive [inhibitor, partial curve]	
Cc1cc(NC(=O)CSC2=NS(=O)(=O)c3cc(F)ccc3N2)no1	inconclusive [inhibitor, full curve]	
COc1ccc2nnc(-c3ccccc3)n2n1	inconclusive [inhibitor, full curve]	
O=c1c2ccccc2nc(SCc2nnc(-c3ccccc3Br)o2)n1Cc1ccco1	inconclusive [inhibitor, partial curve, poor fit]	
CC(=O)Nc1cccc(C(=O)OCC(=O)c2ccccc2Cl)c1	inconclusive [inhibitor, partial curve, poor fit]	
COc1ccc(NC(=O)c2cc(Br)ccc2Cl)c([N+](=O)[O-])c1	inconclusive [inhibitor, partial curve, poor fit]	
CC(=O)Nc1cccc(OCC(=O)NS(=O)(=O)c2ccc(Cl)cc2)c1	inconclusive [inhibitor, full curve, poor fit]	
COc1cc(OC)cc(C(=O)NCC2CCCN(Cc3ccc(SC)cc3)C2)c1 (configuration not stated)	inconclusive [inhibitor, partial curve]	
Fc1cccc(/C=N/Nc2ccccn2)c1	inconclusive [inhibitor, single point]	
COc1ccccc1CNC(=O)COC(=O)CSc1ccc(C)c(C)c1	inconclusive [inhibitor, full curve, poor fit]	
COc1ccc(C[C@@H]2c3cc(O)c(OC)cc3CCN2C)cc1O	inconclusive [inhibitor, partial curve, poor fit]	
Cc1ccc(/C=N/NC(=O)c2ccncc2)cc1	inconclusive [inhibitor, full curve, poor fit]	
COc1ccc(N2C(=O)CS(=O)(=O)C23C(=O)N(Cc2c(F)cccc2Cl)c2ccccc23)cc1 (configuration not stated)	inactive	
FC(F)(F)c1ccc2c(c1)C1C=CCC1C(c1ccncc1)N2 (configuration not stated)	inactive	
Cn1c(=O)c2c(nc(SCC(=O)N3CCc4ccccc43)n2Cc2ccccc2)n(C)c1=O	inconclusive [inhibitor, full curve, poor fit]	
COCCCN(C(=O)c1cc2c(s1)CCCCC2)c1c(N)n(Cc2ccccc2)c(=O)[nH]c1=O	inconclusive [inhibitor, single point]	
Cc1ccc(NC(=O)c2nc(S(=O)(=O)Cc3ccccc3)ncc2Cl)cc1	inactive	
O=C(CCN1C(=O)/C(=C/c2ccccc2F)SC1=S)NCCCN1CCOCC1	inactive	
CC(C)CCNC(=O)c1cc(Sc2ccc(F)cc2F)nc2ccccc12	inactive	
COC(=O)C(Cc1ccc(O)cc1)NC(=O)c1ccc2c(c1)OCCO2 (configuration not stated)	inconclusive [inhibitor, partial curve, poor fit]	
Cc1cccc(C)c1N=C1C(=O)Nc2ccccc21		inconclusive: -19.3% [inhibitor]

SMILES	Potency	activity change, negative = inhibition
CCCc1nn(C)c(C(=O)Nc2ccc(CC)cc2)c1Cl	inconclusive [inhibitor, partial curve]	
COC(=O)C1=C(C)N(CC2CC2)C(=NCc2cc(OC)c(OC)c(OC)c2)N[C@H]1c1ccccc1	inconclusive [inhibitor, partial curve]	
Cc1cc(C)n(/N=C/c2cccs2)c(=O)c1C#N	inconclusive [inhibitor, partial curve, poor fit]	
CC(=O)c1ccc(NC(=O)N2CCc3ccccc3C2)cc1	inconclusive [inhibitor, full curve, poor fit]	
O=C(O)CNC(=O)/C(=C/c1cccc([N+](=O)[O-])c1)NC(=O)c1ccco1	inconclusive [inhibitor, full curve, poor fit]	
CCC(CC)C(=O)N1CCCC(c2nc(-c3cccs3)no2)C1 (configuration not stated)	inconclusive [inhibitor, full curve, poor fit]	
CCCc1nc2n[nH]c(N)c2c2c1CCCC2	inconclusive [inhibitor, full curve, poor fit]	
CCOC(=O)c1c(NC(=O)c2ccco2)n(C2CCCCC2)c2nc3ccccc3nc12	inconclusive [inhibitor, partial curve, poor fit]	
CN(CCC#N)C(=O)COC(=O)c1ccc(CNS(=O)(=O)c2ccc(F)c(Cl)c2)cc1	inconclusive [inhibitor, full curve, poor fit]	
Cc1ccc(NC(=O)CSc2nc3ccc(NC(=O)CCc4ccccc4)cc3s2)c(C)c1	inactive	
Clc1ccccc1C1Nc2cccc3cccc(c23)N1	inconclusive [inhibitor, full curve]	
O=C(NNC(=S)Nc1ccc(Cl)cc1Cl)c1ccncc1	inconclusive [inhibitor, partial curve]	
CCOC(=O)C1=C(CN2CCSCC2)NC(=O)NC1c1ccc2c(c1)OCO2 (configuration not stated)	inconclusive [inhibitor, full curve, poor fit]	
Cc1ccsc1C(=O)NNC(=O)COc1ccccc1Cl	inconclusive [inhibitor, full curve, poor fit]	
O=S(=O)(c1ccccc1)c1nnn2c1nc(NC1CCN(Cc3ccccc3)CC1)c1ccccc12	inconclusive [inhibitor, full curve, poor fit]	
CCCc1cnc(N2CCN(C(=O)c3ccc(F)cc3)CC2)nc1	inactive	
Cc1cccnc1NC(=O)CNC(=O)C1CCCCC1	inconclusive [inhibitor, partial curve, poor fit]	
O=C(c1ccco1)N1CCN(C(=O)c2cc(-c3ccccn3)nc3ccc(Cl)cc23)CC1	inactive	
Cc1nnc(SCC(=O)NC2CCC(C)CC2)s1 (configuration not stated)	inconclusive [inhibitor, full curve, poor fit]	
COc1ccc(NC(=O)COc2ccccc2F)cc1S(=O)(=O)N1CCCCC1	inconclusive [inhibitor, single point]	
CC1CCN(C(=O)CSc2nncn2-c2ccccn2)CC1	inconclusive [inhibitor, partial curve, poor fit]	
Cc1cccc(C(=O)OC(C)C(=O)NC(=O)NC2CCCCC2)c1O (configuration not stated)	inconclusive [inhibitor, single point]	
CCCS(=O)(=O)N1CCN(CCCc2ccccc2)CC1	inconclusive [inhibitor, full curve, poor fit]	

SMILES	Potency	activity change, negative = inhibition
O=C(NC1CC1)c1ccc2c(Cl)c3c(nc2c1)CCCC3	inactive	
Cc1cc(C)c(NC(=O)C(C)(C)C)c(Cl)c1	inconclusive [inhibitor, full curve, poor fit]	
CC(C)(C)c1ccc(C(=O)Nc2cnccn2)cc1	inactive	
CCN1CCN=C1Nc1ccccc1	inconclusive [inhibitor, full curve, poor fit]	
COC(=O)c1[nH]c2cccc(OC)c2c1NC(=O)CCN1CCN(c2ccccc2OC)CC1	inactive	
N#Cc1ccc(N2CCCNCC2)nc1	inactive	
CCn1c(SCC(=O)NCC2CCCO2)nc2ccccc21 (configuration not stated)	inconclusive [inhibitor, full curve, poor fit]	
CCOC(=O)N1CCC(N2Cc3cccc(C(=O)O)c3C2=O)CC1	inconclusive [inhibitor, full curve]	
CCCCCSc1cc(OC)c(CCNC)cc1OC	inconclusive [inhibitor, single point]	
Cc1ccc2cc(CCNS(=O)(=O)c3ccc(F)cc3)c(=O)[nH]c2c1	inconclusive [inhibitor, full curve, poor fit]	
N#CCC(=O)Nc1ccc(C(=O)NCCC(c2ccccc2)c2ccccc2)cc1	inactive	
Cc1ccc(C)c(C(C)NC(=S)NCc2ccc(F)cc2)c1 (configuration not stated)	inactive	
O=C1C2C(C(=O)N1/N=C/c1cc([N+](=O)[O-])ccc1O)C1C=CC2C12CC2 (configuration not stated)	inactive	
CCCCN1CNC(=S)N(CCc2ccccc2)C1	inconclusive [inhibitor, full curve, poor fit]	
O=C(Cn1cnc2c(nnn2Cc2ccc(F)cc2)c1=O)N1CCCCC1	inconclusive [inhibitor, partial curve]	
COC(=O)c1[nH]c(=O)c2ccccc2c1OCc1ccccc1	inconclusive [inhibitor, full curve, poor fit]	
Brc1ccccc1OCCCOc1cccc2cccnc12	inconclusive [inhibitor, full curve, poor fit]	
O=c1ccc2cc(S(=O)(=O)NCc3ccccc3)ccc2[nH]1	inconclusive [inhibitor, partial curve, poor fit]	
CN=c1scc(-c2ccc(OC)cc2)n1/N=C(\C)c1cccnc1	inactive	
c1cnc2c(OCc3nc4ccccc4[nH]3)cccc2c1	inconclusive [inhibitor, single point]	
Cc1nn(-c2ccccc2)c2c1C(=O)N(Cc1ccccc1)C(=O)C(C)(C)C2	inconclusive [inhibitor, full curve, poor fit]	
